Measurements published in PubChem BioAssay AID493208 (National Center for Advancing Translational Sciences (NCATS), 2011).
The campaign covered roughly 44,000 compounds. About 340 (0.77%) were called active. About 5% were inconclusive and are not listed. Calls follow the shape of the dose curve; as a rule, active = well fitted inhibition curve with a large enough effect; inconclusive = small, poorly fitted or top-dose-only effect; inactive = flat fitted curve, though single readings scatter. The list shows a part of the results.

Assay: Acumen qHTS Assay for Inhibitors of the mTORC1 Signaling Pathway in MEF (Tsc2-/-, p53-/-) Cells: Sytravon;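 also: plate controls were DMSO for no effect and rapamycin for full effect; nearly all actives have a fitted effect of over 50% in size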
Settings: phospho-rpS6 immunofluorescence/PI, 24 h; series mostly up to 38.3 µM; activity change, negative = inhibition: at the top concentration
In short: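 Readout is phospho-S6 Alexa 488 signal normalized to PI per well, reported as % active cells with thresholds set from rapamycin (7.5 nM) and DMSO controls. Cells: Tsc2-/-, p53-/- MEFs, 24 hrs compound at 37 C; PI cell number serves as viability.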

Row | SMILES | activity change, negative = inhibition
1 | COc1ccccc1N1CCN(S(=O)(=O)c2c(C)sc3ncn(CC(=O)Nc4ccc(C)cc4Br)c(=O)c23)CC1 | inactive: -1.94%
2 | Cc1ccc(Nc2sc(C(=O)c3ccc(F)cc3)c(N)c2S(=O)(=O)c2ccc(C)cc2)cc1 | inactive: -17.5%
3 | Cc1ccc(CNC(=O)C2CCCN(c3ncnc4onc(-c5ccc(F)cc5)c34)C2)cc1 (stereo not given) | inactive: 3.87%
4 | CN1CC(=O)Nc2cc(C(=O)O)ccc21 | inactive: 9.62%
5 | COc1ccc(OC)c(NC(=O)Cn2c(=O)cc(C)c3c(C)nn(-c4cccc(Cl)c4C)c32)c1 | inactive: -4.9%
6 | O=C(CN1C(=O)CCSc2ccccc21)Nc1ccc(C(F)(F)F)cc1 | inactive: 0.463%
7 | CCOC(=O)c1ccccc1NC(=O)Cn1ccn2nc(-c3ccc(OCC)cc3)cc2c1=O | inactive: 0%
8 | CCOc1ccccc1C(=O)Nc1ccc(S(=O)(=O)N(Cc2ccccc2)c2ccccc2)cc1 | inactive: -0.135%
9 | Cc1ccc(-n2cc(C(=O)OCc3ccc(F)c(F)c3)c3ccccc3c2=O)cc1 | inactive: -6.08%
10 | Cc1ccccc1-c1noc(-c2nnn(-c3ccccc3C)c2N)n1 | inactive: -6.6%
11 | CCCN1Cc2cccc(C(=O)Nc3ccccc3C(=O)OC)c2C1=O | inactive: -1.68%
12 | CCOc1ccc(NC(=O)CN2CCN(CC(=O)Nc3ccc(F)cc3F)CC2)cc1 | inactive: 3.69%
13 | COc1ccc(N2CCN(C(=O)c3cnn(-c4ccc(OC)cc4)c3C3CCN(C(=O)OC(C)(C)C)CC3)CC2)cc1 | inactive: -4.86%
14 | COc1cc(C(=O)N2CCN(C(=O)COc3cccc(C)c3)CC2)cc(OC)c1OC | inactive: -28.2%
15 | Cc1cccc(C(=O)N(Cc2ccccc2F)C2CCS(=O)(=O)C2)c1 (stereo not given) | inactive: 2.02%
16 | COc1ccc(Cc2nc3c4cnn(-c5cccc(F)c5)c4ncn3n2)cc1 | inactive: 5.49%
17 | COC(=O)c1c(NC(=O)COc2cccc(C(F)(F)F)c2)sc2c1CCCC2 | inactive: -2.84%
18 | CCCNC(=O)N1CCCN(S(=O)(=O)c2ccc3c(ccn3CC)c2)CC1 | inactive: 0.0748%
19 | Cc1c(Cl)cccc1-c1ccc(/C=C(\C#N)c2nc3ccccc3[nH]2)o1 | inactive: -28.8%
20 | CCN(CC)c1ccc(NS(=O)(=O)c2cc(-c3cc(C)no3)ccc2C)c(C)c1 | inactive: -10.9%

Row | SMILES | activity change, negative = inhibition
21 | CCOC(=O)c1c(NC(=O)c2ccc(S(=O)(=O)N(CC)CC)cc2)sc2c1CCCCC2 | inactive: -4%
22 | O=C(Nc1cccc(C(F)(F)F)c1)Nc1ccc2snnc2c1 | inactive: -21.1%
23 | CCc1nn(CC(=O)NCCOC)c(=O)c2cc3cc(F)ccc3n12 | inactive: -2.46%
24 | Cc1cc(S(=O)(=O)Nc2ccc(O)c(Sc3nc4ccccc4s3)c2)ccc1Cl | inactive: -7.38%
25 | CCN(CC)C(=O)CSc1nc2cc3c(cc2c(=O)n1CCCC(=O)NCc1ccc(OC)cc1)OCO3 | inactive: -8.72%
26 | Cc1ccc(CCNC(=O)CN(c2ccc(C(C)C)cc2)S(=O)(=O)c2c(C)nn(C)c2C)cc1 | inactive: 1.69%
27 | CCn1c(SCC(=O)Nc2c(C)cccc2C)nnc1-c1nonc1NC(C)=O | inactive: -0.775%
28 | O=C(NCCC1=CCCCC1)c1ccc2c(c1)N(Cc1ccccc1)C(=O)c1ccccc1S2=O (stereo not given) | inactive: 1.69%
29 | Cc1ccc(C(=O)N2CCCCC2CCN2CCCCC2)cc1 (stereo not given) | inactive: 5.46%
30 | COc1ccc(-c2csc(-c3c(N)c(C(=O)c4ccccc4)n4ccccc34)n2)cc1OC | inactive: -4.11%
31 | CCS(=O)(=O)c1cccc(C(=O)Nc2ccc(-c3nc4ccccc4s3)c(O)c2)c1 | inactive: -6.54%
32 | CCN(CCCNC(=O)c1nn(-c2ccc(OC)c(Cl)c2)c(=O)c2c1c1ccccc1n2C)c1ccccc1 | inactive: -1.72%
33 | Cc1ccc(CN2CCN(C3CCN(S(=O)(=O)N(C)C)CC3)C(=O)C2=O)cc1 | inactive: -2.54%
34 | CC1CCN(C(=O)Cn2c(SCC(=O)Nc3ccc(F)cc3)nc3ccccc32)CC1 | inactive: 0%
35 | COc1ccc(OC)c(CNC(=O)CSc2c3c(nc4cc(Cl)ccc24)CCCC3)c1 | inactive: 0.626%
36 | CCN(Cc1ccccc1)C(=O)Cn1c(=O)n(-c2cccc(C)c2)c(=O)c2c1c1cc(OC)ccc1n2C | inactive: 6.85%
37 | CCOC(=O)C1=C(CN2CCN(C)CC2)NC(=O)NC1c1ccc(F)cc1 (stereo not given) | inactive: -0.593%
38 | CC(C)c1ccc(OCC(=O)NCC(c2ccc(Cl)cc2)N2CCOCC2)cc1 (stereo not given) | inactive: -14.1%
39 | CC(C)NC(=O)C1CCN(C(=O)c2cnn(-c3ccccc3)c2-n2cccc2)CC1 | inactive: 1.44%
40 | COc1ccc(N2C(N)=C(C#N)C(c3cc(CN4CCOCC4)cs3)C3=C2CCCC3=O)cc1 (stereo not given) | inactive: -1.48%

Row | SMILES | activity change, negative = inhibition
41 | Cc1nc2c(C(=O)NCCc3ccc(Cl)cc3)cnn2c(C)c1Cc1ccc(F)cc1 | inactive: -2.72%
42 | Cc1ccc(NS(=O)(=O)c2ccc3c(c2)C(C(C)C)C(=O)N3)cc1C (stereo not given) | inactive: -1.12%
43 | COc1ccc(NS(=O)(=O)c2ccc(-n3cccn3)cc2)cc1OC | inactive: -17.5%
44 | CNc1nc2c(c(=O)n(C)c(=O)n2C)n1CC(O)COc1ccc(OC)cc1 (stereo not given) | inactive: 1.38%
45 | CCCSc1nc2sc3c(c2c(=O)n1-c1ccc(C)c(Cl)c1)CCN(C(C)=O)C3 | inactive: -20.4%
46 | CN(C(=O)c1cc2nc(-c3ccc4c(c3)OCO4)cc(C(F)(F)F)n2n1)c1ccc(OC(F)(F)F)cc1 | inactive: -2.59%
47 | Cn1nc(C(=O)NCCc2ccc(Cl)cc2)c2c1-c1ccccc1SC2 | inactive: -1.06%
48 | CSc1nnc2n(-c3cccc(C)c3)c(=O)c3c4c(sc3n12)CCCC4 | inactive: -0.694%
49 | COc1ccc(S(=O)(=O)c2c(O)c(C)cc(NC(=O)c3ccccc3)c2C(C)C)cc1 | inactive: -0.912%
50 | COc1ccccc1N1CCN(C(=O)c2ccc(Nc3nc4ccccc4n4nnnc34)cc2)CC1 | inactive: -0.703%
51 | CCn1c(=O)n(CC)c2cc(N3CCCC3)c(NC(=O)Nc3cc(C)cc(C)c3)cc21 | inactive: -12.8%
52 | O=C(Nc1ccccc1F)c1oc2ccccc2c1NC(=O)c1c(F)cccc1F | inactive: -29.7%
53 | Cc1cccn2c(=O)cc(COc3cccc(NC(=O)c4cccc(Cl)c4)c3)nc12 | inactive: 0.628%
54 | Cc1cccc(-c2nnc(SCC(=O)N3CCCCC3)o2)c1 | inactive: -2.12%
55 | COc1cc(-c2nc(C(N)=O)c3c(n2)n(-c2cccc(C)c2)c(=O)n3C)cc(OC)c1OC | inactive: 1.28%
56 | CCn1c(CN2CCCCC2)nc2cc(NC(=O)c3cccc([N+](=O)[O-])c3)ccc21 | inactive: 1.76%
57 | Cc1c(C(=O)Nc2cccc(-c3nc4ccccc4s3)c2)oc2ccc(F)cc12 | inactive: 0.992%
58 | Cc1ccc(CNC(=O)c2nn(C)c3c2CSc2ccc(C)cc2-3)cc1 | inactive: 3.39%
59 | Cc1ccc(CCNC(=O)CSCc2nc(-c3ccc(C)cc3)oc2C)cc1 | inactive: -15.8%
60 | COC(=O)c1ccccc1NC(=O)c1ccc(=O)n(Cc2cccc(C)c2)c1 | inactive: 1.27%
